Molecules are shown by their SMILES. The whole screen tested about 46,000 compounds, of which about 60 (0.1%) were called active. Another 3% or so got no clear call; they are omitted. The call rests on the fitted dose curve; in most records, active means well fitted inhibition curve with a large enough effect; inconclusive means small, poorly fitted or top-dose-only effect; inactive means no such curve, though single readings can be large or run the other way. The list shows a part of the results.

A short description of the assay: Primary qHTS assay for Inhibitors of ovarian cancer metastasis using an organotypic tumor microenvironment (TME) model. Further: nearly all actives have a fitted effect of over 65% in size.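 On activity change, negative = inhibition: plate controls were DMSO wells for no effect and tomatine positive control wells for full effect.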 Particulars: SKOV3ip1-GFP adhesion/invasion on 3D omental model, fluorescence; series mostly up to 45.8 µM; activity change, negative = inhibition: at the top concentration. Put shortly: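 Adhesion/invasion was scored as fixed GFP-labeled SKOV3ip1 cell counts (488/509 nm), normalized to DMSO and tomatine controls. Cancer cells in serum-free medium, with four compound doses (0.36-46 umol/L), sat 2 hr at RT then 16 hr at 37 C on a 48 hr fibroblast/mesothelial/ECM culture.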
A general note: In qHTS, concentration-response curves come from the screen itself.
Turning to `Cc1ccc(Cn2c(SCc3ccc(C(=O)N4CCCCC4)cc3)nc3ccncc32)cc1`, the compound was classed as inactive.

For the compound `NC(=O)c1c(OCc2c(F)cc(Br)cc2F)nsc1NC(=O)NCCCCN1CCCC1`, the “activity change, negative = inhibition” value was inactive: 5.21%.

For the compound `CCC(=O)OC1=C(C(C)=O)N(Cc2ccccc2)S(=O)(=O)c2ccccc21`, the “activity change, negative = inhibition” value is inactive: 3.86%.

As for `COc1ccc(NC(=O)C2CCCN(c3ncnc4onc(C)c34)C2)cc1OC` (stereo unspecified), the “activity change, negative = inhibition” value was inactive: -10.8%.

With `CCC(=O)N1CCc2cc(CNC(=O)c3cccc(N(C)C)c3)ccc21`, the “activity change, negative = inhibition” value is inactive: 9.51%.

On to `COc1ccc(C(=O)NCc2ccc3c(c2)CCN3C(C)=O)c(OC)c1`, for which the “activity change, negative = inhibition” value is inactive: -11.4%.

Consider `Cc1ccccc1NC(=O)C1CCN(S(=O)(=O)c2c(C)noc2/C=C/c2ccco2)CC1`, for which the “activity change, negative = inhibition” value was inactive: -8.48%.

For `COc1ccc(-c2cc(C(=O)N3CCCCC3C)no2)cc1OC` (stereo unspecified), the “activity change, negative = inhibition” value is inactive: -12.2%.

For the compound `Cc1ccc(-c2c3c(=O)n(C)c(=O)n(C)c3c3n2-c2ccccc2NC3c2ccc(C)cc2O)cc1` (stereo unspecified), the “activity change, negative = inhibition” value was inactive: 2.82%.

Regarding `CN(C(=O)CSc1nc(-c2ccccc2)no1)c1ccc(F)cc1`, the “activity change, negative = inhibition” value was inactive: 9.11%.

Turning to `COc1ccc(C(=O)c2sc3nc4c(c(C(F)(F)F)c3c2N)CN(C(C)=O)CC4)cc1OC`, the “activity change, negative = inhibition” value was inactive: -1.55%.

With `CC1CCCCN1CCCNC(=O)CN1C(=O)c2cccnc2Oc2ccc(Cl)cc21` (stereo unspecified), the outcome was inactive.

`CCOc1ccccc1C1C(C(=O)Nc2ccccc2)=C(C)Nc2nc(SCC(=O)c3ccc(C)cc3)nn21` (stereo unspecified): the “activity change, negative = inhibition” value was inactive: -28.2%.

In the case of `Cc1ccc(Cl)cc1N1CCN(S(=O)(=O)c2cn(C)c(C)n2)CC1`, the “activity change, negative = inhibition” value was inactive: -5.38%.

As for `O=C(COc1ccccc1)Nc1nnc(S(=O)(=O)Nc2ccccc2)s1`, the “activity change, negative = inhibition” value is inactive: -18.7%.

For `CCN(Cc1ccccc1)c1ncnc2c1cnn2-c1ccc(F)cc1`, the “activity change, negative = inhibition” value is inactive: 1.1%.

Consider `Cc1ccc(-c2nnc(Nc3cccc(Cl)c3)c3ccccc23)cc1S(=O)(=O)N1CCN(C)CC1`, for which the outcome was inactive.

In the case of `O=C(c1ccc(Cl)cc1)N1CCN(CCc2ccncc2)CC1`, the “activity change, negative = inhibition” value was inactive: 3.51%.

On to `CCOc1ccccc1NC(=O)Nc1nnc(N2CCCC(C)C2)s1` (stereo unspecified), for which the “activity change, negative = inhibition” value is inactive: 5.11%.

On to `CCOc1ccc(Nc2cc(C(=O)NCc3ccccc3Cl)c3ccccc3n2)cc1`, for which the compound was called inactive.

In the case of `Cc1cccc(NC(=O)Cn2c(=O)n(CCCCCC(=O)NCc3ccccc3)c(=O)c3sccc32)c1`, the “activity change, negative = inhibition” value was inactive: -28.1%.

Consider `CCOc1ccc(CNC(=O)C2CCN(C(=O)c3ccc(-n4ccc5ccccc54)s3)CC2)cc1`, for which the “activity change, negative = inhibition” value was inactive: 3.95%.

Regarding `O=C(Nc1ccc(Br)c(Cl)c1)c1ccc(C(=O)Nc2ccc(Br)c(Cl)c2)cc1`, the “activity change, negative = inhibition” value was inactive: 2.54%.

In the case of `CCOC(=O)c1cc2c(=O)n3ccccc3nc2n(C)c1=NC(=O)c1c(-c2c(F)cccc2Cl)noc1C`, the “activity change, negative = inhibition” value was inactive: 3.13%.

Take `Cc1ccc(C)c(N2CCN(S(=O)(=O)c3c(C(=O)N4CCC(C)CC4)c(C)n(C)c3C)CC2)c1`: the “activity change, negative = inhibition” value was inactive: -18.4%.

On to `O=C(CCCc1ccccc1)NC1CC(=O)N(c2cccc(F)c2)C1` (stereo unspecified), for which the call was inactive.

Consider `O=C(COc1ccccc1)NCC(c1ccc(Cl)cc1)N1CCCCC1` (stereo unspecified), for which the “activity change, negative = inhibition” value was inactive: 3.05%.

With `CCc1ccc(NC(=O)CSc2nc3c(c(=O)[nH]2)CN(Cc2ccc4c(c2)OCO4)CC3)cc1`, the “activity change, negative = inhibition” value was inactive: 5.43%.

On to `COc1ccc(CNC(=O)CCc2nnc3n(C)c(=O)c4sccc4n23)cc1`, for which the compound was called inactive.

For the compound `COc1ccc(-c2nc(C(=O)Nc3cccc(C(C)=O)c3)nn2-c2ccccc2Cl)cc1`, the “activity change, negative = inhibition” value is inactive: -17.4%.

Turning to `CCCCCn1c(CCCNC(=O)c2ccc(Cl)cc2)nc2ccccc21`, the “activity change, negative = inhibition” value was inactive: 2.44%.

Regarding `COC(=O)C1=C(C)N(C(C)C)C(=O)C1(NC(=O)c1ccccc1OC)C(F)(F)F` (stereo unspecified), the “activity change, negative = inhibition” value is inactive: -7.1%.

On to `COc1ccccc1CNC(=O)C(=O)NCC(c1ccco1)S(=O)(=O)c1ccc(C)cc1` (stereo unspecified), for which the “activity change, negative = inhibition” value was inactive: -4.16%.

`CCc1ccc(NC(=O)c2cc(S(=O)(=O)N3CCCC(C)C3)cn2C)cc1` (stereo unspecified): the result was inactive.

As for `CCOC(=O)[C@H](CCc1ccccc1)N[C@H]1CS[C@H](c2cccs2)CN(CC(=O)O)C1=O`, the “activity change, negative = inhibition” value is inactive: -28.1%.

Consider `Cc1ccccc1CCNC(=O)c1ccc(Cn2c(=O)c3cccn3c3cccnc32)cc1`, for which the “activity change, negative = inhibition” value was inactive: -7.46%.

On to `COc1ccc(N2CCN(C(=O)c3cc4c(=O)n(Cc5ccco5)ccc4nc3C)CC2)cc1`, for which the result was inactive.

In the case of `CCC(=O)N1CCc2cc(Br)cc(S(=O)(=O)Nc3ccccc3C(=O)OC)c21`, the “activity change, negative = inhibition” value was inactive: 5.85%.

On to `O=C(CSc1nccn1Cc1ccc(Cl)cc1)Nc1nc2ccccc2s1`, for which the “activity change, negative = inhibition” value was inactive: -9.18%.

Consider `COCCCNC(=O)c1cc2c(-c3cccc(OC)c3)nn(C)c2s1`, for which the “activity change, negative = inhibition” value is inactive: -0.939%.

Turning to `CCOc1cc(-c2nc(-c3ccc(-c4ccccc4)nc3OCC)no2)cc(OCC)c1OCC`, the “activity change, negative = inhibition” value was inactive: 7.81%.

As for `COc1cc(OC)c(NC(=O)c2cnn(-c3ccccc3)c2-n2cccc2)cc1Cl`, the “activity change, negative = inhibition” value is inactive: -2.87%.

On to `O=C(NCc1ccccc1Cl)c1ccccc1NC(=O)c1nsc2ccccc12`, for which the result was inactive.

Regarding `CCc1nn(CC(=O)NCCc2ccc(SC)cc2)c(=O)c2cc3sccc3n12`, the compound was called inactive.

With `CCCc1cc(=O)n2[nH]c(NCc3c(F)cccc3Cl)nc2n1`, the “activity change, negative = inhibition” value was inactive: -8.64%.

Consider `CCOc1ccc(OCC(=O)Nc2ccc(S(=O)(=O)Nc3cc(C)on3)cc2)cc1`, for which the “activity change, negative = inhibition” value is inactive: 7.48%.

For `COc1cc(CN(C(=O)COc2ccc(F)cc2)c2ccccn2)cc(OC)c1OC`, the “activity change, negative = inhibition” value is inactive: 3.18%.

Take `COc1cc(NC(=O)CCN2CCN(CCO)CC2)cc(OC)c1`: the compound was classed as inactive.

Consider `Cc1ccc(C)c(N2CCN(C(=O)c3cc(C)nc4c3c(C)nn4-c3ccccc3)CC2)c1`, for which the “activity change, negative = inhibition” value was inactive: -5.49%.

As to `Cc1ccc(NC(=O)c2ccc(=O)n(CC(=O)Nc3ccccc3)n2)cc1`, the outcome was inactive.

Consider `CCOC(=O)COc1ccc(-c2nnn(CC(=O)Nc3ccccc3)n2)cc1`, for which the compound was classed as inactive.

For the compound `Cn1c(=O)c2sccc2n2c(CCCC(=O)Nc3ccc(Oc4ccccc4)cc3)nnc12`, the “activity change, negative = inhibition” value was inactive: 1.7%.

`COc1ccc(N2CCN(S(=O)(=O)c3ccc4c(c3)C(C(C)C)C(=O)N4)CC2)cc1` (stereo unspecified): the “activity change, negative = inhibition” value is inactive: -1.7%.

For `Cc1nc2cc(-c3cccc(F)c3)nn2c(C)c1CCC(=O)NCCc1ccccc1`, the “activity change, negative = inhibition” value is inactive: -1.32%.

Take `COc1ccc(F)c(F)c1C(=O)c1cnc(NC2CCN(S(C)(=O)=O)CC2)nc1N`: the “activity change, negative = inhibition” value is inactive: 48.5%.

As to `CCn1c(CNC(=O)c2ccc(OC)cc2)nnc1SCC(=O)Nc1cc(C)ccc1C`, the “activity change, negative = inhibition” value was inactive: -4.35%.

For the compound `Cn1c(/C(C#N)=C/c2ccccc2Br)nc2ccccc21`, the “activity change, negative = inhibition” value is inactive: -7.61%.

In the case of `Cc1sc2c(c1C)c(=O)n(CCc1ccccc1)c(=O)n2Cc1ccc(C(C)(C)C)cc1`, the “activity change, negative = inhibition” value is inactive: 2.39%.

As to `Cc1ccc(C)c(NC(=O)C2CCN(S(=O)(=O)c3c(C)noc3/C=C/c3cccs3)CC2)c1`, the call was inactive.

On to `COc1ccc(S(=O)(=O)N2Cc3ccccc3CC2C(=O)Nc2cc(Cl)ccc2Cl)cc1` (stereo unspecified), for which the “activity change, negative = inhibition” value is inactive: -1.06%.

In the case of `CCOCN(C(=O)Cn1c(COC)nc2ccccc21)c1c(C)cccc1CC`, the “activity change, negative = inhibition” value is inactive: -2.09%.
